According to the supplement of paper PMC11417369:
± gives the standard deviation of the averaged measurements. Some of the results follow.

test system: PfAP2-G AP2 domain (GST-tagged); test: gcPBM binding intensity (ln(normalized median fluorescence intensity)); higher = stronger DNA binding
In short: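 After 1 h on an Agilent 4 × 180k array of primer-extended double-stranded 36-bp intergenic genomic probes and negative controls, bound GST-tagged P. falciparum DNA-binding domains were detected with Alexa488 anti-GST antibody and scanned at 488 nm. The domains had been expressed in E. coli, and binding took place in 1× PBS with 1% milk, 0.2 mg/ml BSA, 0.5% salmon testes DNA and 0.03% Triton X-100. Binding intensity is the highest Masliner-normalised natural-log median intensity across replicate spots of either probe orientation.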

| Sequence | gcPBM binding intensity (ln) |
| --- | --- |
| TATATATATATATATATATATATATATATATGTTGT [TGCATGCA_negctrl_site24] | 9.81 ± 0.23 |
| CCAACTAAAAAGGAATGTACATAGTTATGGTTGGAA [XGTACX_site8762] | 10.7 ± 0.32 |
| AAATATATATAAAAGTGTACATTTGTTATAATCAGT [XGTACX_site4822] | 11.3 ± 0.86 |
| TTATATATTTCTACTCATATTACAATGTGAGAAATA [CACACA_negctrl_site873] | 9.805 ± 0.078 |
| TAGATATATAATTTTTGTACGTAGTCGAATCTCAGA [XGTACX_site765] | 11 ± 0.65 |
| CTCAACAAAATATGAGTGCATTGTTATTACATATAT | 10.21 ± 0.057 |
| AACATTAAAAGGGATACACACATATAAATAAATAAT [CACACA_site489] | 10.2 ± 0.25 |
| TTTCCCTAATGAAAGTGTACCTGTGAGAAAAAAAAG [XGTACX_site194] | 11.3 ± 0.82 |
| TTGTAATTATTAAACACACACAAAATATCTAGAATA [CACACA_site7231] | 10.1 ± 0.14 |
| ATTTAGATTAACACTTGTACATAATACATACAAATA [XGTACX_site4147] | 10.9 ± 0.5 |
| ATTTTTTTTTGTGTATATAAATAAATAAATATATAT [GTGCAC_negctrl_site603] | 10 ± 0.16 |
| AATTAGATACTAACAAGTACATATATATATATATAT [XGTACX_site2252] | 11.2 ± 0.79 |
| TGTATATATTAATGTACACACATGCGTATGTTCGTT [CACACA_site3583] | 11.2 ± 0.67 |
| TTATTTATTTATATAGTGCAATAAACACATAAATAG | 10.1 ± 0.26 |
| AAAAAAAAAAAAAGAACACACACAGTGCACATTCGG [CACACA_site8163] | 10.3 ± 0.12 |
| CATATTGGTATGCTCATGCACTTTTATTTTGTTATT [GTGCAC_site9553] | 10.2 ± 0.13 |
| AAAAGAAAAGAGAGGAGTACAAAATATAATTATCTA [XGTACX_site5172] | 11.3 ± 0.76 |
| TATAAAAAGCAAAACAAAAAAACAAATTGAAAAATT [TGCATGCA_negctrl_site158] | 9.76 ± 0.28 |
| TATAAATAATAAAGATGTACTTTTTATGATTCCTAC [XGTACX_site7003] | 11.4 ± 1 |
| CCGTAGTTTTAAAATAGTACTTTTATGGTTAATAAA [XGTACX_site3162] | 11.1 ± 0.68 |
| TTTTTTATTTTTTTATTGTTTTATTGTTTCATTGTT [XGTACX_negctrl_site128] | 9.48 ± 0.16 |
| TTACTACTATATTATACACACATATATTTATTTATA [CACACA_site7274] | 9.99 ± 0.071 |
| TAATTTTTCCTTTTTGCACACATTAACGTCGACGAA [CACACA_site4025] | 10.1 ± 0.21 |

| Sequence | gcPBM binding intensity (ln) |
| --- | --- |
| CCATAAAATCATAAGCGTACTTAATATATTTTACTT [XGTACX_site559] | 11.3 ± 0.82 |
| AACATACGACAATACGCACACATATATGTACATATT [CACACA_site1917] | 11.3 ± 0.75 |
| TATATAATAATTTAGAGTACTGATAAAATATTCCAT [XGTACX_site6200] | 11.1 ± 0.68 |
| TTAAACAATTTAGACATACACACAAAAATAATATTA [CACACA_site385] | 10.095 ± 0.007 |
| AGCATACATATTTTTTGTACATATATATATATATAT [XGTACX_site8536] | 10.9 ± 0.58 |
| CAATTTATTTTTATTACACACTATCCAAATAATTTC [CACACA_site2956] | 10.1 ± 0.16 |
| TCTTTTCGTTCATGCTGTACTTAATTGCTCTAATTT [XGTACX_site4816] | 11.2 ± 0.79 |
| AACCTTACACAAGGGGTGCAATATTATTTCGATAAA [GTGCAC_site9600] | 10.3 ± 0.35 |
| TGCTCCTATTATATAGTGCATTTATTTTAATAAACG | 9.96 ± 0.17 |
| TAATTTATAAAAAATTGTACATTAAACATATATATA [XGTACX_site5164] | 10.8 ± 0.56 |
| TAAATTGTATATGAGACTATACTATAAAAGTATGAA [XGTACX_negctrl_site22] | 9.845 ± 0.064 |
| TGTCTGTGCGGGTGTACACATTTCATATTACCCAAT [CACACA_site5593] | 11.8 ± 0.98 |
| CCCTGCCTCTCTTTGGTGCGTTGTAACCCTCGAGGA | 10.1 ± 0.15 |
| AAAAAAAAAAAAAGCACACACACATATGTGTATATA [CACACA_site8225] | 10.07 ± 0.049 |
| TTTTTTTTCACACATTGTACTTTTTTATAAAATATA [XGTACX_site4351] | 11.4 ± 0.87 |
| TAAGAAAAAGGCACACGTACATAATTCAAAATAAAT [XGTACX_site982] | 11.3 ± 0.67 |
| CCAATGAGGATATATACACACATACATTAAAAAAAT [CACACA_site5090] | 10 ± 0.17 |
| ATATATATGTATGTATGTACTTATTTATTTATTTAT [XGTACX_site7740] | 11.3 ± 0.87 |
| ATTTAAATAATATGTACACACATTTAAAAAATTATA [CACACA_site2816] | 11.5 ± 0.89 |
| CGAAATAAATCTTATGCACACAAATAATTAATTAAA [CACACA_site8491] | 10.03 ± 0.028 |
| AAAAAAATATAATATTTGAATAAATATAATAATATG [XGTACX_negctrl_site477] | 9.57 ± 0.15 |
| GTCAACTTGTGATAAGTGCATATATATAATAAAATG | 10.2 ± 0.19 |
